Measured values as given in the supplement of paper PMC3334620.
Whole data set: some 33,000 sequences, median “E-score (-0.5 to 0.5)” near -0.011, cut for the highest 2% near 0.28. This is one part of the list.

biological target: T1, Gcr1 (UniProt P07261); test: PBM E-score (8-mer binding enrichment) (E-score (-0.5 to 0.5)); higher = stronger / more preferred TF binding; most listed sequences are background and not binding sites; conditions: protein concentration: 100 nM; construct: GST-full length
T1 sequence: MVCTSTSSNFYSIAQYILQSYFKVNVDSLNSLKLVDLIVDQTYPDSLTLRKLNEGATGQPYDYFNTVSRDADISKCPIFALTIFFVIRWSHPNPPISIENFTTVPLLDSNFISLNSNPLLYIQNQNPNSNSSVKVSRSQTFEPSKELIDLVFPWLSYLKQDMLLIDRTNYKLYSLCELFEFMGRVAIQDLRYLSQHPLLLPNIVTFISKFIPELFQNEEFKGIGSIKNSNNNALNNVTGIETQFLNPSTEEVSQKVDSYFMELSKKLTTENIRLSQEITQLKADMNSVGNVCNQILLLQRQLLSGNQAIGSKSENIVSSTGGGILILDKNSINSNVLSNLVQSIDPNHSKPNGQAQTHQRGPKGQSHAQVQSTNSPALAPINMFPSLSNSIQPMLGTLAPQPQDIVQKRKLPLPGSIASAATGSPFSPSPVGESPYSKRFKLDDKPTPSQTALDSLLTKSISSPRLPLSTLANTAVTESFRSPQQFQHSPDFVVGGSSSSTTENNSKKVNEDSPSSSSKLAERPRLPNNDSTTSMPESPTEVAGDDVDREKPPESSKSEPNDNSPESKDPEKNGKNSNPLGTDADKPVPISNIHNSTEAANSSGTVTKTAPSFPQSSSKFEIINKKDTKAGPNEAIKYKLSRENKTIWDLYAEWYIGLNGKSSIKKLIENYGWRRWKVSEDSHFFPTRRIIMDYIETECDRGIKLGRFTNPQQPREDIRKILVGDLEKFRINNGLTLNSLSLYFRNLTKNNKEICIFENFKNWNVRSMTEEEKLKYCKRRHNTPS
Procedure, shortened: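 The E-score, a modified Wilcoxon-Mann-Whitney statistic, was computed by the Universal PBM Analysis Suite for every ungapped eight-base word pooled with its reverse complement. Scans behind it were normalised with masliner after bound GST-tagged yeast transcription factors were detected with fluorescent anti-GST. The proteins, at about 100-200 nM, had been applied to universal all-10-mer Agilent arrays made double-stranded by primer extension.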

Sequence	PBM E-score
AGATCTGC	-0.0651
AGACTGCT	-0.124
AGTAATCG	-0.127
GTTGGTCA	0.0415
AACTAGCA	-0.0545
ACATCCTG	0.276
AAACATCT	0.122
GGTATCCA	0.267
AATCTGTA	-0.03
ATCACATC	-0.0167
AGCATAAG	0.0544
ACTTGATC	0.0531
GGACGTTA	0.0629
GTCCTACA	0.095
ATTCACCG	0.123
GTATCGAC	-0.238
CATTTAAC	0.0721
CTCGCCAC	-0.176
CCCAAGGA	-0.0185
ATCACCAT	0.0303
AACAATAA	0.017
CCGTCAAG	-0.068
CAACGGGG	-0.0353
GAGAGGGC	-0.212
ACCTCTGA	0.0306

Sequence	PBM E-score
AGTCTAAC	-0.144
AAACGCCG	0.0308
GCAACACA	-0.0842
AACCATGT	-0.0416
ACCGAATG	-0.00693
ACTAATTC	0.0751
CAAGGTGC	-0.0358
GACTAATC	-0.128
GTCCCAAC	0.165
GTAGAGTA	-0.149
GGTCACAA	-0.0508
ATCTTGGG	0.109
CCCCTGGC	-0.0685
CGAGATGA	-0.0306
CAGTGAAG	0.0369
AACCTGGC	0.0571
ACATCAGA	0.0395
AGTGATTC	0.0351
ACGGTAAT	-0.228
ATCCATAA	0.113
GATGCATC	-0.0805
AAAGGCCC	-0.188
AGCATTCA	-0.179
AACTAATG	0.11
ATTCCTTA	0.043

Sequence	PBM E-score
ACCATTAA	0.0847
AACCCAGA	0.0947
TACGTCAA	0.111
CCTGAGCG	0.0569
CTGTGCAA	-0.111
CCGTGACC	-0.214
CACACATA	-0.0109
CAGTACTC	-0.184
GCAGTGAA	0.109
AACGGTGT	-0.343
CAGCACGG	0.166
ACGAGTAG	0.00592
AACTTATA	0.0912
ATCAGCGG	0.00888
TCTTCGAA	-0.106
CTAAGAAC	0.0873
CACATGAA	-0.0495
ATAAGAAC	0.269
GAAGGCTC	-0.117
CTGACGCA	-0.0763
CCACCGTA	0.147
AGGCTCTC	-0.0462
CCCTAGTC	-0.158
AAATACGG	0.149
TATTCTCA	-0.0338

Sequence	PBM E-score
GATTAGCC	-0.107
CAATGCCG	-0.29
ATACCAAT	-0.0179
AATTTGCC	-0.0288
CTTCGACC	-0.0571
TAGGGTCA	-0.126
ACATCGAC	-0.154
AATTTACT	0.155
CGGTGGGC	-0.106
CAACCTTG	-0.101
AGCAGTGC	-0.294
TTGCGCAA	-0.0464
TAGGCGGA	-0.147
AAGTATGT	-0.0902
CTTATTGC	0.0403
CAGGCGCA	-0.0694
AATAACAT	0.122
AGAACGTG	-0.192
CTCAGATA	0.137
AACTTCGA	0.117
ATATCCCG	-0.107
ATCCGAAG	0.104
AGGCGCAA	0.0238
TTCCGCAA	0.186
ATCCCACC	0.139

Sequence	PBM E-score
CGCATTTA	0.143
CCCAGAGG	0.0026
AGACCGCC	-0.139
ATCACCAA	0.0298
CCCGGACG	-0.0526
GTACCCAC	0.144
CGAACTAG	0.136
CAGTTTCA	0.0561
CGTCTATC	0.0717
CTTGTAGA	0.0507
GGTTCCGA	0.106
GAACCCTC	-0.138
CATAGTAC	-0.0462
GAACTTAA	0.0607
AGGCACGC	-0.177
TTAACGAA	0.0905
ATCATTGA	-0.0967
CTTCCGCC	0.022
ATGAGAGC	-0.173
GTATGACA	0.0344
GTAACATA	0.101
CCACTATC	0.368
GTTTGCTA	-0.0585
AAAGGGTC	-0.235
AGGGCACG	-0.128

Sequence	PBM E-score
GCTATCGA	-0.0891
GCGCGGCA	-0.0701
TACCGTAA	0.0593
CTCCTCAC	-0.0357
GTAGTCCA	-0.086
CTCAATAA	0.0502
TCAACACA	0.0452
AGTCCAAT	0.152
GCACTAGA	-0.158
ATACGTTA	-0.158
AACGATAG	-0.0512
ATCAGAGC	-0.0893
CTAGCCCC	-0.0102
CAAGCGAC	-0.0201
GCTTAGCA	-0.193
ACTCATAG	-0.0454
CCTCGGAA	0.0163
CCTCGTGC	-0.0611
ATCTTCAT	-0.0527
CTTGTTTC	0.0369
GATGAACA	-0.0607
ATCCGGAA	0.26
AACGACAC	-0.0852
ATAGTCCC	-0.253
AACTGCGT	0.172

Sequence	PBM E-score
ACATGGAT	-0.0474
CATCTTTA	0.114
AAAATTAT	0.0815
ACCCTCTA	0.0687
CGTTGTGA	-0.00763
AAGCCGGG	0.112
TCCCTACA	0.00308
AAAGGGGC	0.12
GAATACCA	0.143
GTAGGAAC	0.0386
TTAACCAA	-0.0373
GAAACGCA	-0.156
CTCAGGGC	-0.117
CTGCCTCC	-0.0884
CACAGAAA	-0.117
CCCAAGTC	-0.0913
CGGCATAA	-0.0776
GACTATGA	-0.12
CCTCTCAC	-0.23
AGCCAAAA	0.115
ACGTCGTC	0.0135
CACAATAC	0.085
TGCGTCCA	0.0639
AGTTCGTA	0.0517
CTTGGTTC	0.149

Sequence	PBM E-score
CAAACATG	0.0455
ACCTTGGC	-0.0788
CTATGGAA	0.181
ACATATCA	0.129
CTGGAAAG	0.0575
CGAGTGGC	-0.0703
CTTCCGCA	0.108
ATGCATCC	-0.00178
GAATCCTA	0.245
CTTGGTGC	0.116
CCCGGTAC	-0.0724
CCTGCACA	-0.138
ATGCATAA	0.047
ACCCTAAG	-0.0974
CATTCATA	0.0926
GCGACCAA	0.274
CGCGTAAA	0.191
AACGGCAA	-0.0694
CTAGGGCA	-0.124
AGTCTCGC	-0.154
AAAGCCTA	-0.27
TCTCTTCA	0.0625
TAGGTGAA	-0.109
ATGTGTTA	-0.00113
CTCCCCAG	-0.0641

Sequence	PBM E-score
GAAATGGA	0.036
ACTATGCT	0.0592
AGTTGTCG	0.0459
AACACATT	0.152
CAACACTA	0.122
AGGCGGCA	0.159
CCTAAGAC	-0.0669
GGCAACCC	0.176
CATGGTCG	-0.172
AGATGTCG	0.108
ACCCGCGA	-0.0673
AACTCGGG	0.0114
TGAGTAAA	-0.0118
ACTTGGAT	0.216
GGATAGGA	-0.00793
CGCGCCTA	0.258
GAGCAGAA	-0.105
ATCCGTAA	0.032
CGTGGAGC	-0.0506
CAGGAATG	0.115
TTAAATAA	0.164
ACAAGGCG	0.0767
TCGCGCAA	0.0621
GAGAAAAC	-0.02
AAATTACC	-0.0912

Sequence	PBM E-score
AGAGTAGC	-0.205
GAAAACGA	-0.00072
CTCAGAGC	-0.207
TGGTAACA	0.121
AAAAAAAT	0.261
GTATTATA	0.131
ATGAGTTC	-0.0799
ATAACCGG	-0.0295
AGACTATG	-0.147
TCCGACCA	-0.112
CTGCAGTC	-0.0408
TATCAGAA	0.0717
ATAATTGG	0.226
ATATGAAA	0.134
AATATAGT	0.234
CATTAATG	0.125
AGAGGCTC	0.00285
GAGATTAA	0.0329
ATTTGTTA	-0.0315
CCACAGTA	0.00082
ACGGGCAG	-0.128
CAATGCAC	-0.232
CAGTAATA	0.166
CGAGCGGA	-0.113
AATATGCC	-0.0464

Sequence	PBM E-score
CTTGGTAC	-0.0654
CTGATTAA	0.148
CTTTTCAC	-0.101
GGGACTAC	-0.0471
GGAAGGAC	-0.12
GAGTTAAA	-0.101
GACGCAGA	0.0512
GAGGGCGC	0.114
CATAGATG	-0.0229
GGAGAGCA	-0.0289
TGTCTAAA	0.00861
CGTCCAAG	-0.0458
ATCTTATC	0.208
GGGCGCTA	0.32
ATCCCAAG	0.111
ACCCACAC	-0.0404
CGCAGCAA	0.0303
AAATTGCT	-0.0445
AATCGTTC	-0.0317
ATCTGAAG	0.224
AGTTGATG	0.0862
CCTGGGTC	0.00723
AAGTACAG	-0.0329
GTAAGGGA	-0.219
AAACGGGT	0.136

Sequence	PBM E-score
GCAAACCC	-0.212
ACGACATA	-0.0239
AACGTTGC	0.136
AGCAGCGA	-0.153
CTTAATCA	0.00116
ACAATACT	-0.113
AAGCTTCA	-0.0647
CTAGGACA	0.0711
CGCGAGTC	-0.109
CGAGTGTA	-0.0172
ACACGGAT	-0.132
CCTATAGG	0.0723
CTTGCTGA	-0.266
CACCGCCC	-0.0346
CCGACTTC	0.2
GCATTTGA	0.0186
ACTTCGTC	-0.0295
AGTTCCGA	0.119
ACGGGGTA	0.129
AAGACTCT	-0.045
GGTTGTCA	0.0338
AGGACCTC	0.166
TGCATAAA	-0.00335
ATGACAAC	0.0345
GCTCAACA	-0.223

Sequence	PBM E-score
AAGCGACT	-0.0563
GTGGCGAA	0.0731
GAACAGCA	-0.107
ACAGTCGT	-0.255
CCGAGGAC	-0.0799
GAAACGTA	-0.078
CGCGGCAC	0.0545
ACTTGCCT	-0.045
CACGAAGC	0.311
GATGCGAC	0.0751
GTTTCCCA	0.0408
AAAATTCC	0.238
GGAACAAC	-0.0437
ATCCTGCC	-0.0891
ACGTTGGG	0.0445
GCTTACAC	-0.00529
CCGCTCAC	-0.0473
GGAGAGCC	-0.0346
AACGTGTC	-0.106
GAGGTAAA	-0.0518
GAGGGAAC	-0.0784
ACGGTATA	0.172
CCGTAACG	0.0354
TCAGGAGA	0.026
ACAATAGC	0.017

Sequence	PBM E-score
GTGCGGCA	-0.17
ACTTAAGA	0.139
CCGTCTGA	-0.184
CCGTTTGA	-0.0777
ATCAGCTA	-0.136
CGCTCACA	-0.0516
AGGACCTG	-0.0376
AGTTCAGA	-0.157
CTAGCCCA	-0.124
CTGGCGGA	-0.126
CGATGACA	-0.0193
AGGATGTC	0.275
GAAACATA	0.11
CTACAACA	-0.0445
ACTATTGC	0.0299
AAGTGAAA	0.191
GCGCGCCC	0.0734
GCGCACTA	0.0267
CCATGAAG	-0.0409
